Common to all, as to conditions: rank among the four antibodies selected in Reference Example 1.7
Assay [1] concerns the target T1, c-Met (Homo sapiens, UniProt P08581). Kind of assay: Affinity for c-Met. It counts as binding.
The subject of assay [2] is Akt phosphorylation. Kind of assay: Akt phosphorylation. It counts as cell-based.
In assay [3] the target is T1, c-Met. Kind of assay: c-Met degradation. It counts as cell-based.

T1 sequence (P08581 25-1390): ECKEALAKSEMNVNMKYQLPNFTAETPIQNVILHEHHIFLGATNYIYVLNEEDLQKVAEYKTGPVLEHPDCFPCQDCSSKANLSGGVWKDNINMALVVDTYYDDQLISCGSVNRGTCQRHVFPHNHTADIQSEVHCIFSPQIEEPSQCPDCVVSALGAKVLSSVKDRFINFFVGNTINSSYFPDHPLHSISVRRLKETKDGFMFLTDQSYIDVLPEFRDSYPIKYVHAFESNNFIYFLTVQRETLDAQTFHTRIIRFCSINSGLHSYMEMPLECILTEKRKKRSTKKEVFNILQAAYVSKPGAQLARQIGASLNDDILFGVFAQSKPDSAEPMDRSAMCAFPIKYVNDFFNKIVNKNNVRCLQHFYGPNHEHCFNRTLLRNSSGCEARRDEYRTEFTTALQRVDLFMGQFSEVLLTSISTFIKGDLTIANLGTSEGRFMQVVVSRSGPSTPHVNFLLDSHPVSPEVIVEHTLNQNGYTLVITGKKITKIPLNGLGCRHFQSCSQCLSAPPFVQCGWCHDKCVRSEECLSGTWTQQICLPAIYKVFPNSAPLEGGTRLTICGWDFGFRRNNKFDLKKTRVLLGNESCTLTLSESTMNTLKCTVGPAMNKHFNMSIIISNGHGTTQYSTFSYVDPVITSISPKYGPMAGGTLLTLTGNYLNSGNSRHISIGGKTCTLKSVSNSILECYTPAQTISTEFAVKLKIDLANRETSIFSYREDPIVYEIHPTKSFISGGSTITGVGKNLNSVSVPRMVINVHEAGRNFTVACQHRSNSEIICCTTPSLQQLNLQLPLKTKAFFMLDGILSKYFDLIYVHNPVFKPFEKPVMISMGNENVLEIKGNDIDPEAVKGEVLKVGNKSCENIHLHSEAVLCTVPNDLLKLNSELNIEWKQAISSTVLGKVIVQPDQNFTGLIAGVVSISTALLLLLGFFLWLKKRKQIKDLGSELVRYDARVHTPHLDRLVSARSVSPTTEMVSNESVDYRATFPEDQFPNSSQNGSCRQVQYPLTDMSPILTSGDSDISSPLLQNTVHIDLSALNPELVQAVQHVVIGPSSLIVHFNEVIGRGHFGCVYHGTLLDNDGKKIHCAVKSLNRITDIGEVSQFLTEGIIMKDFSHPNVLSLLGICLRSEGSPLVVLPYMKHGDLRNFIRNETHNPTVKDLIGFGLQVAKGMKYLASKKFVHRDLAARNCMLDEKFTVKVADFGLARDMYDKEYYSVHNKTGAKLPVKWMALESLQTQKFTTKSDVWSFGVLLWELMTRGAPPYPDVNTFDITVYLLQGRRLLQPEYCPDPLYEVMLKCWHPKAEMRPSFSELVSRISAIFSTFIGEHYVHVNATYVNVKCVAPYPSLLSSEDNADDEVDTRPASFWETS

B1: huAbF46-H4-A1: affinity-matured anti-c-Met antibody, L3-1 origin (antibody)
heavy: EVQLVESGGGLVQPGGSLRLSCAASGFTFTDYYMSWVRQAPGKGLEWLGFIRNKANGYTTEYSASVKGRFTISRDNSKNTLYLQMNSLRAEDTAVYYCARDNWFAYWGQGTLVTVSSASTKGPSVFPLAPSSKSTSGGTAALGCLVKDYFPEPVTVSWNSGALTSGVHTFPAVLQSSGLYSLSSVVTVPSSSLGTQTYICNVNHKPSNTKVDKKVEPKSCDCH[not shown - human IgG1 Fc]
light: DIQMTQSPSSLSASVGDRVTITCKSSQSLLASGNQNNYLAWHQQKPGKAPKMLIIWASTRVSGVPSRFSGSGSGTDFTLTISSLQPEDFATYYCQQSYSRPYTFGQGTKVEIKRTVAAPSVFIFPPSDEQLKSGTASVVCLLNNFYPREAKVQWKVDNALQSGNSQESVTEQDSKDSTYSLSSTLTLSKADYEKHKVYACEVTHQGLSSPVTKSFNRGEC
On to B1, for which the “affinity for c-Met” value in assay [1] was “highest”. Further, the Akt phosphorylation result in assay [2] is given as “lowest”. Besides, the c-Met degradation degree result in assay [3] is “lowest”.
